Measurements from PubChem BioAssay AID651820 (National Center for Advancing Translational Sciences (NCATS), 2012).
Among all 340,000 compounds or so, about 12,000 (3.5%) were called active. The shares of active, inactive and inconclusive entries below differ from those in the screen. The call rests on the fitted dose curve; in most records, active means well fitted inhibition curve with a large enough effect; inconclusive means small, poorly fitted or top-dose-only effect, or another doubt; inactive means no such curve, though single readings can be large or run the other way. No potency is given beside an inconclusive call; the fits are too rough.

assay: qHTS Assay for Inhibitors of Hepatitis C Virus (HCV); conditions: Huh7.5.1 HCVcc-Cre (HCVcc is cell-culture hepatitis C virus) infection, luciferase reporter, 44 h; activity change, negative = inhibition: at 41.8 µM (top of the series) unless noted
How it was run: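 Whole-lifecycle infectious HCVcc-Cre system; cells 1,000/well, compound then virus (~0.5 moi) added 4 h after plating, 44 h culture. Luciferase read 15 sec following 15 min substrate incubation, room temp.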
On the % scale 0 is the no-effect control and ±100 the full control effect; potency means the concentration at half of the fitted maximal effect; tags describe the fitted curve by direction and shape.

| Structure (SMILES) | activity change, negative = inhibition | Potency |
| --- | --- | --- |
| O=C(CN1C(=O)/C(=C2/SC(=S)N(CCS(=O)(=O)O)C2=O)c2ccccc21)Nc1cccc(Br)c1 | inactive: 15.8% |  |
| O=C(NCC(=O)N(c1ccccc1F)C(C(=O)NC1CCCC1)c1cccnc1)c1ccco1 (stereo unspecified) | inactive: 12.3% |  |
| O=c1cc(COn2nnc3ccc(C(F)(F)F)cc32)nc2sccn12 |  | inconclusive [inhibitor, partial curve] |
| O=C(NCc1ccc(F)cc1)c1cccc2c1C(=O)c1ccc(N3CCOCC3)cc1S2(=O)=O |  | inconclusive [inhibitor, single point] |
| COc1ccc(/C=N/n2c(N)nc(-c3ccccc3)c2-c2ccccc2)cc1 |  | inconclusive [inhibitor, single point] |
| O=C(Nc1ccc(Oc2ccccc2)cc1)C1CC1 |  | inconclusive [inhibitor, partial curve] |
| CC(C)C(=O)N1CCN(c2ccccc2NC(=S)NC(=O)Cc2ccccc2)CC1 |  | inconclusive [inhibitor, full curve] |
| Oc1ccc(/C=N/NC(=S)Nc2cccnc2)c(O)c1 |  | inconclusive [inhibitor, single point] |
| CC(C)(C)NC(=O)CSc1nnc(-c2ccccc2)c(-c2ccccc2)n1 | inactive: 3.75% |  |
| CCOCCOC(=O)c1[nH]c2c(c1C)C(=O)CC(c1cc(OC)c(OC)c(OC)c1)C2 (stereo unspecified) |  | active: 5.01 µM |
| CCCCCn1c(SCc2cccc(C)c2)nc2c1c(=O)[nH]c(=O)n2C |  | inconclusive [inhibitor, partial curve] |
| Cc1ccc(S(=O)(=O)N(CC(=O)N(C)C)c2cccc([N+](=O)[O-])c2)cc1 |  | inconclusive [inhibitor, partial curve] |
| CCOP(=O)(OCC)/C(=N/OC(=O)c1ccc(Cl)cc1Cl)C(N)=O | inactive: 7.17% |  |
| Nc1ccccc1C(=O)NCc1ccco1 | inactive: 6.76% |  |
| CCCOc1c(Br)cc(C(=O)OCC(=O)NC(=O)c2cccn2C)cc1OC |  | inconclusive [inhibitor, single point] |
| CCOC(=O)N1CCN(S(=O)(=O)c2cc(Br)cc3c2N(C(=O)CC)CC3)CC1 |  | inactive |
| CCN(CC)CCNC(=O)C(Cl)=C1C(Cl)=C(Cl)C(Cl)=C1Cl |  | inconclusive [inhibitor, partial curve] |
| COc1cccc(/C=C2\SC(=S)N(CCC(=O)NC3C=CS(=O)(=O)C3)C2=O)c1 (stereo unspecified) |  | inconclusive [inhibitor, single point] |
| O=C(CSc1nnc(-c2ccccn2)o1)Nc1ccc(F)cc1 | inactive: 16.3% |  |
| Cc1cccc(Cc2nnc(CCC(=O)N(CC3CC3)CC3CCCO3)o2)c1 (stereo unspecified) | inactive: 22.2% |  |
| CCCCc1ccc(NC(=O)CSc2nc(=O)n(CCN(CC)CC)c3c2CCCC3)cc1 |  | inconclusive [inhibitor, single point] |
| O=C(NNC(=S)Nc1cccc(C(F)(F)F)c1)c1cccc(Cl)c1 |  | inconclusive [inhibitor, single point] |
| Cc1cc(C)cc(NS(=O)(=O)c2ccc(Oc3ncc(C(F)(F)F)cc3Cl)cc2)c1 |  | inconclusive [inhibitor, partial curve] |

| Structure (SMILES) | activity change, negative = inhibition | Potency |
| --- | --- | --- |
| Cc1ccc2nc3c(cc2c1)c(NC(=O)c1ccco1)nn3CC(C)C |  | inconclusive [inhibitor, single point] |
| Cc1ccccc1-c1nn(-c2ccccc2)cc1C(=O)NCC(c1ccco1)N1CCCC1 (stereo unspecified) | inactive: 12.5% |  |
| CNc1c(NS(=O)(=O)c2ccc(Br)cc2)c(=O)oc2ccccc12 | inactive: -6.71% |  |
| C#CC1(O)CCC2C3CCc4cc(O)cc(C)c4C3CCC21C (stereo unspecified) |  | inconclusive [inhibitor, single point] |
| CCCCC1NC(=S)N(C2CCCCC2)C1=O (stereo unspecified) | inactive: 9.6% |  |
| CN1C(=O)c2ccc(C(=O)Nc3ccccc3O)cc2C1=O | inactive: 13.5% |  |
| Cc1ccc(S(=O)(=O)N2CCOCC2)cc1NC(=O)COC(=O)c1ccc(Cl)nc1 | inactive: 18% |  |
| COc1ccccc1N1CCN(CC(O)COc2ccc3c(c2)OCO3)CC1 (stereo unspecified) |  | inconclusive [inhibitor, single point] |
| C=CCNC(=O)CN1CCN(C(c2ccccc2)c2ccccc2)CC1 |  | inconclusive [inhibitor, partial curve] |
| Cc1ccc(S(=O)(=O)N2CCC(=O)N(C(COCc3cccc(C)c3)C(C)C)CC2)cc1 (stereo unspecified) |  | inconclusive [inhibitor, single point] |
| Cc1cccc(N2CCN(C(=O)C3CC(=O)N(c4ccc5c(c4)OCCO5)C3)CC2C)c1 (stereo unspecified) |  | active: 11.2 µM |
| CC(=O)N(CCc1ccccc1)Cc1cc2cc(C)ccc2[nH]c1=O | inactive: -3.52% |  |
| Cn1c(=O)c2sccc2n2c(CCCC(=O)NCc3ccco3)nnc12 | inactive: 15.8% |  |
| CCOc1ccc(Cl)cc1C1=CC(=O)C[C@H](c2ccc(OC)cc2)C1 |  | active: 8.91 µM |
| CCn1c(=O)n(CC)c2cc(N3CCCC3)c(NC(=O)c3ccccc3C)cc21 |  | inconclusive [inhibitor, partial curve] |
| CCC(=O)c1ccc(OCC(O)CN(C)C2CCCCC2)cc1 (stereo unspecified) |  | inconclusive [inhibitor, single point] |
| O=C(Cn1cnc2sc(-c3ccccc3)cc2c1=O)N1CCOCC1 | inactive: -10.2% |  |
| O=C(CN1CCN(c2ccc(O)cc2)CC1)Nc1cc([N+](=O)[O-])ccc1Cl | inactive: 1.26% |  |
| COc1ccc(Cl)cc1N(CC(=O)N/N=C/c1ccc(OC(C)C)cc1)S(=O)(=O)c1ccc(C)c([N+](=O)[O-])c1 |  | inconclusive [inhibitor, partial curve] |
| CN(C(=O)CSc1nc2scc(-c3ccccc3)c2c(=O)[nH]1)c1ccccc1 | inactive: -22.1% |  |
| CCN(CC)S(=O)(=O)c1ccc(C)c(NC(=S)N2CCN(c3ccccn3)CC2)c1 |  | active: 22.4 µM |
| Cc1nc(NC(=O)CSc2nc3cccnc3n2Cc2ccccc2)sc1C |  | inconclusive [inhibitor, single point] |
| CC1O[C@@H](OC2C(O)C(C)O[C@H](OC(=O)[C@]34CCC(C)(C)C[C@H]3C3=CCC5[C@@]6(C)CC(O)C(O[C@@H]7OC(CO)C(O)[C@@H](O)[C@@H]7O)[C@@](C)(C(=O)O)C6CC[C@@]5(C)[C@]3(CO)CC4)C2O[C@H]2OC(C)[C@@H](O[C@@H]3OCC(O[C@@H]4OC(CO)C(O)[C@H](O)C4O)[C@@H](O)[C@@H]3O)[C@H](O)C2O)C(O)C(O)C1O (stereo partly specified) | inactive: 15.8% |  |
